Measured values: patent US20180289790A1 (Bristol-Myers Squibb, published 2018)

Molecular target: T1, human ICOS (huICOS), on activated human CD4+ T cells (human, UniProt Q9Y6W8 21-199)
T1 sequence: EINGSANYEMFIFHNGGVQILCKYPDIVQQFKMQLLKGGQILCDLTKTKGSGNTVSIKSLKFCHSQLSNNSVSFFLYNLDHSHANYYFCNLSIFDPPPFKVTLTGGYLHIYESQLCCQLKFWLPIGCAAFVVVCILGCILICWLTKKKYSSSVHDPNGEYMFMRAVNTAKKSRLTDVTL
Test: cell-based or functional assay

B1: ICOS.33 IgG1f S267E (antibody)
heavy: EVQLVESGGGLVKPGGSLRLSCAASGFTFSDYFMHWVRQAPGKGLEWVGVIDTKSFNYATYYSDLVKGRFTISRDDSKNTLYLQMNSLKTEDTAVYYCTATIAVPYYFDYWGQGTLVTVSSASTKGPSVFPLAPSSKSTSGGTAALGCLVKDYFPEPVTVSWNSGALTSGVHTFPAVLQSSGLYSLSSVVTVPSSSLGTQTYICNVNHKPSNTKVDKRV[human IgG1 Fc with changes not shown]
light: DIQMTQSPSSLSASVGDRVTITCQASQDISNYLSWYQQKPGKAPKLLIYYTNLLAEGVPSRFSGSGSGTDFTFTISSLQPEDIATYYCQQYYNYRTFGPGTKVDIKRTVAAPSVFIFPPSDEQLKSGTASVVCLLNNFYPREAKVQWKVDNALQSGNSQESVTEQDSKDSTYSLSSTLTLSKADYEKHKVYACEVTHQGLSSPVTKSFNRGEC
notes: Humanized anti-human ICOS antibody, human IgG1f with S267E (EU numbering); also called ICOS.33-g1f-S267E
EC50 of IFN-γ production, CD25-CD4+ T cell and B cell SEB co-culture (20 donors): 0.02 nM
fold increase of IFN-γ production, CD25-CD4+ T cell and B cell SEB co-culture: ≤ 2.3 fold
